From ChEMBL document CHEMBL1201862, “PubChem BioAssay data set” (2004) come the findings set out here.

“And” between values parts separate entries of the source, which are not always exact repeats. Equal values may be shown once.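 Growth conditions: 96-well plates. Treatment: test compound, 48 hours, 5 concentrations. Analysis: linear interpolation between bracketing concentrations; unreached endpoints set to highest concentration. GI50 = concentration required for 50% inhibition of growth.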 The source made the active and inactive calls. No stated cut-off is given here; in the data, active = GI50 up to about 1.1 µM and inactive = higher.

The test system of this assay is NCI-H322M. Nature of the assay: inhibition of tumour cell growth, NCI panel, 48 h.
On to `COC1=CC(=O)c2c(cc(COP(N)(=O)N(CCCl)CCCl)n2C)C1=O` (configuration not stated), for which the GI50 was inactive: 2.69 µM.

Consider `Nc1cc(Cl)ccc1SSc1ccc(Cl)cc1N`, for which the GI50 was inactive: 15.2 µM.

Consider `O=C(O)/C=C/c1c[nH]cn1`, for which the GI50 was inactive: > 336 µM.

Turning to `COc1c(O)ccc2c1CN1CCc3cc4c(cc3C1C2)OCO4` (configuration not stated), the GI50 was inactive: 22.8 µM.

As to `CC(=O)OCC1OC(n2c(-c3ccccc3)cc(-c3ccco3)c(C#N)c2=O)C(OC(C)=O)C(OC(C)=O)C1OC(C)=O` (configuration not stated), the GI50 is inactive: 59.8 µM and inactive: 37.7 µM.

Consider `CN1N=C(c2ccncc2)OC1c1cccc(C(F)(F)F)c1` (configuration not stated), for which the GI50 is inactive: > 100 µM.

Regarding `O=C(Nc1cccc([N+](=O)[O-])c1)C(=O)C(C(=O)c1ccccc1F)C1OC(=O)C2C=CC=CC21` (configuration not stated), the GI50 was inactive: 29.3 µM.

Take `CS(=O)(=O)c1nc(Cl)c(Cl)c(C#N)c1Cl`: the GI50 is inactive: 17.7 µM.

On to `CCOC(=O)c1sc2nc(SC)nc(Nc3ccc4c(c3)OCO4)c2c1N`, for which the GI50 was inactive: 26.4 µM.

In the case of `O=c1c(Sc2ncccn2)c(Sc2ncccn2)cnn1CCl`, the GI50 was inactive: 16.4 µM.

Turning to `Cc1cc2nc(O)c(CCC(=O)O)nc2cc1C`, the GI50 was inactive: > 100 µM.

In the case of `O=c1c2ccccc2[nH]c2c(Cl)cc(Cl)c(N3CCCCC3)c12`, the GI50 was inactive: 37.6 µM.

With `Cc1cc(O)nc(NNC(C#N)c2ccc([N+](=O)[O-])cc2)n1` (configuration not stated), the GI50 is inactive: 94 µM.

On to `CCN(CC)CCCC(C)NC(=O)c1cc(-c2nccn2C)nc2ccc(C)cc12` (configuration not stated), for which the GI50 is inactive: > 100 µM.

For `COc1cc(C)c(/C=C/C(=O)N2C(=O)OC[C@@H]2c2ccccc2)c(C)c1`, the GI50 is inactive: > 100 µM.

Regarding `S=C(N1CCN(c2ccccc2)CC1)N1CCN(c2ccccc2)CC1`, the GI50 was inactive: > 100 µM.

In the case of `CCOC(=O)C(=O)NNc1nc2c(s1)C(=O)c1ccccc1C2=O`, the GI50 was inactive: 15.8 µM.

For the molecule `O=C1NC2OC(CO)C(O)C(O1)C2O` (configuration not stated), the GI50 is inactive: > 100 µM.

On to `CC(C)CNC(=O)c1c(NC(=O)c2ccccc2)sc2[nH]c(=O)n(-c3ccccc3)c(=O)c12`, for which the GI50 was inactive: > 100 µM.

In the case of `C=C(COC(C)=O)CC(/C=C(\C)CC/C=C(\C)CO)OC(C)=O` (configuration not stated), the GI50 was inactive: > 100 µM.

Consider `COc1ccc(/C(Cl)=C(\C=O)c2ccc(F)cc2)cc1OC`, for which the GI50 was inactive: 19.3 µM.

With `COc1ccc(Br)c2c1CC(C(=O)O)CC2` (configuration not stated), the GI50 is inactive: > 100 µM.

Take `CCN(CC)c1ccc(C2Nc3ccc4ccccc4c3C3=C2C(=O)CCC3)cc1` (configuration not stated): the GI50 was inactive: > 100 µM.

Regarding `COC[C@@H](/N=C/N1CCc2cc(OC)c(OC)cc2[C@@H]1C)C(C)(C)C`, the GI50 was inactive: > 100 µM.

With `COC(=O)c1c(C)ccc2c(O)c3c(cc12)C(=O)c1c2c(cc(O)c1C3=O)C1(C)OC(C)(O2)C(O)C(N(C)C)C1O` (configuration not stated), the GI50 was inactive: 1.64 µM.

Turning to `Cc1cc([C@H](C#N)c2nc3ccccc3[nH]2)nc(Cl)n1`, the GI50 was inactive: 23.8 µM.

Turning to `O=C(Cc1ccccc1)NNc1nc(NNC(=O)c2ccncc2)nc(Nc2cccc(Cl)c2)n1`, the GI50 was inactive: > 10 µM.

As to `CCN(CC)C(=S)SC1C(=O)NC(=O)NC1=O`, the GI50 was inactive: > 100 µM.

For `OCC(O)C(O)C(C=NNc1ncnc2ccc(Br)cc12)=NNc1ncnc2ccc(Br)cc12` (configuration not stated), the GI50 was inactive: 1.18 µM.

For the molecule `CC(=O)CC(C)(C)NC(=O)[C@@]1(O)CC[C@H]2[C@@H]3CCC4=CC(=O)CC[C@@H]4[C@H]3CC[C@@]21C`, the GI50 was inactive: > 100 µM.

Regarding `CN(C)CCNC(=O)c1cccc(C(=O)Nc2ccccc2)c1[N+](=O)[O-]`, the GI50 is inactive: > 100 µM.

Consider `C=CCc1cc(-c2cc(CC=C)c(O)c(CNCCCl)c2)cc(CNCCCl)c1O`, for which the GI50 is inactive: 31.3 µM.

On to `COC(=O)/C(=N/O)C(C(=O)C=C(C)C)C(=O)C(=O)Nc1nc2ccc([N+](=O)[O-])cc2s1` (configuration not stated), for which the GI50 was inactive: 37.3 µM.

Turning to `CN(CCCNC(=O)c1cn(C)c2c1Cc1ccccc1-2)CCCNC(=O)c1cn(C)c2c1Cc1ccccc1-2`, the GI50 is inactive: 11.4 µM.

For the molecule `COc1ccc2c(c1)CCC/C2=N\NS(=O)(=O)c1c(C)cc(C)cc1C`, the GI50 is inactive: 31 µM.

Turning to `Cc1cccc(C)c1NC(=O)CCCC(=O)C1/C(=N/NC(=O)CC#N)CCC/C1=N\NC(=O)CC#N` (configuration not stated), the GI50 is inactive: > 100 µM.

For `C[Si](C)(C)c1ccc(CC2(Cc3ccc([Si](C)(C)C)cc3)CCNC2)cc1`, the GI50 was inactive: 3.75 µM.

With `CO/C(=N\N=C\c1ccc(Cl)cc1Cl)c1ccncc1`, the GI50 was inactive: > 10 µM.

As to `NC(=O)N/N=C1/c2ccccc2-n2nccc21`, the GI50 is inactive: > 100 µM.

Turning to `CCCCCCCCNC(=O)SCCCC`, the GI50 was inactive: 77.3 µM.

As for `CCCNC(/C=C/[Si](C)(C)C)CO.CCCNCC(O)/C=C/[Si](C)(C)C` (configuration not stated), the GI50 is inactive: > 100 µM.

Turning to `COC(=O)c1cc2cc(OC)c(OC)cc2cc(C(=O)OC)c1=O`, the GI50 was inactive: > 100 µM.

Regarding `CCCN(CCCc1ccccc1)CCc1ccc2[nH]c(=S)[nH]c2c1`, the GI50 was inactive: 49.3 µM.

As for `CC(=O)OCC12C(OC(C)=O)C(=O)C3C(OC(C)=O)C14OC3(C)COC(=O)c1cccnc1C(C)C(C)C(=O)OC(C(OC(C)=O)C2OC(C)=O)C4(C)O` (configuration not stated), the GI50 is inactive: > 100 µM.

Regarding `COc1cc(/C=C/C(=O)O)ccc1C(=O)OCc1ccccc1`, the GI50 is inactive: > 100 µM.

Take `Cc1ccc(/N=N/C(=N/c2ccccc2)c2ccc(N(CCC#N)CCC#N)cc2)cc1`: the GI50 is inactive: 51.1 µM.

`COP(=O)(OC)[C@@](O)(c1ccccc1)[C@@H](O)[C@H](O)c1ccccc1`: the GI50 is inactive: > 100 µM.

For `Brc1ccc2c(-c3csc(-c4c[nH]c5ccc(Br)cc45)n3)c[nH]c2c1`, the GI50 is inactive: 4.83 µM.

`O=c1[nH]c(=O)n(C2OC(CO)C(O)C2O)cc1OCC(F)(F)F` (configuration not stated): the GI50 was inactive: > 100 µM.

On to `COC(=O)[C@]12CC[C@H]3CN(C(=O)OCc4ccccc4)[C@H]([C@H]31)[C@H](c1ccco1)N2`, for which the GI50 was inactive: > 100 µM.

Consider `CCCCCCCC(=O)NS(=O)(=O)c1ccccc1`, for which the GI50 was inactive: > 100 µM.

As for `COc1ccc([C@]23CCN(S(=O)(=O)c4ccc(C)cc4)[C@H]2[C@H](CO)C2(CC3)OCC(C)(C)CO2)cc1OC`, the GI50 is inactive: > 100 µM.

Take `COc1ccc(NC(=O)CC(=O)N2N=C(N(c3ccccc3)c3ccccc3)CC2c2ccccc2)cc1` (configuration not stated): the GI50 was inactive: > 100 µM.

In the case of `N=C(N)NCCCC(NC(=O)c1cccc2c(=O)c3ccccc3[nH]c12)C(=O)O` (configuration not stated), the GI50 is inactive: > 100 µM.

In the case of `CC(=O)Oc1ccc2c(c1)CC[C@@H]1C2[C@@H](O[N+](=O)[O-])C[C@@]2(C)C1CC[C@@H]2O` (some centres not stated), the GI50 was inactive: 41 µM.

Consider `CCOC(=O)C1=C(C(=O)OCC)SC2(S1)C(C(=O)OCC)=C(C(=O)OCC)Sc1c2ssc1=O`, for which the GI50 was inactive: 11 µM.

On to `C#CCCOC(=O)c1ccccc1OC(C)=O`, for which the GI50 was inactive: > 100 µM.

On to `Cc1cc(N2CCCC2)c([N+](=O)[O-])cc1[N+](=O)[O-]`, for which the GI50 was inactive: > 100 µM.

`COC(=O)[C@H](Cc1c[nH]c2ccccc12)NC(=O)c1ccc(CNC(=O)/C(C)=C/c2ccccc2)cc1`: the GI50 was inactive: 29.7 µM.

In the case of `COc1cccc(-c2ccc3c4c2O[C@H]2c5[nH]c6ccccc6c5C[C@@]5(O)[C@@H](C3)N(CC3CC3)CC[C@]425)c1`, the GI50 is inactive: 2.23 µM.

Consider `NC(=O)CC(N)c1nnn[nH]1` (configuration not stated), for which the GI50 was inactive: > 100 µM.

For `Cc1nc2ccc(S(=O)(=O)Nc3ccc(Cl)cc3)cc2c(=O)n1NC(=O)CNc1ccc(Cl)cc1`, the GI50 is inactive: > 100 µM.

Turning to `N#CC(NNC(=O)c1ccccc1O)c1ccc(O)cc1` (configuration not stated), the GI50 is inactive: 9.55 µM.

Take `Cc1cc(OC2OC(CO)C(O)C(O)C2O)ccc1O` (configuration not stated): the GI50 was inactive: > 100 µM.

With `Cc1nnc(N)nc1/C=C/c1c(O)ccc2ccccc12`, the GI50 was inactive: 28.3 µM.

Take `COc1ccc(OC)c(CSc2ccc(OC)c(OC)c2)c1`: the GI50 was inactive: > 100 µM.

On to `CCOC(=O)CC(C)C1(C=O)CCCCC1=O` (configuration not stated), for which the GI50 is inactive: > 100 µM.

As to `N#CCCn1[nH]c(=O)c(Cl)c(Cl)c1=O`, the GI50 was inactive: 16.6 µM.

For `CC1=NN(c2cc(Cl)c(S(=O)(=O)O)cc2Cl)C2(C1)C(Cl)C(=O)N2c1nc2ccccc2s1` (configuration not stated), the GI50 is inactive: > 100 µM.

For `COc1ccc2c(c1)C(N)=C(Cc1ccncc1)C2=O`, the GI50 was inactive: > 100 µM.

As for `Cc1ccc(S(=O)(=O)NC(CCC(=O)NN)C(=O)NN)cc1` (configuration not stated), the GI50 is inactive: > 100 µM.

In the case of `C=C1C2CCC3C4(C)CCCC(C)(C(=O)O)C4CCC3(C2)C1OC(=O)/C(C)=C/C` (configuration not stated), the GI50 was inactive: 53 µM.

Turning to `O=S(O)c1cc(Cl)cc(Cl)c1OCc1ccccc1`, the GI50 was inactive: > 100 µM.

With `C=C1C(=O)O[C@H]2[C@H]3O[C@@H](C[C@@H]12)[C@](C)(O)CC[C@@H]1O[C@@]1(C)CCC[C@H]3C`, the GI50 is inactive: 29.6 µM.

Regarding `CC(C)(C)OC(=O)C#CC[C@H]1CCCC1/C=C/C(O)=C1/C(=O)NC(CCCNC(=O)OC(C)(C)C)C1=O` (some centres not stated), the GI50 was inactive: 87.9 µM.

As to `O=C(O)CCNc1[nH]cnc2ncnc1-2`, the GI50 was inactive: > 100 µM.

`COc1cc(C(=O)N[C@H]2CCc3cc(OC)c(OC)c(OC)c3-c3ccc(SC)c(=O)cc32)cc(OC)c1OC`: the GI50 was active: 0.01 µM.

For `COc1ccc(CC(C#N)c2cc(OC)c(OC)c(OC)c2)cc1` (configuration not stated), the GI50 is active: 0.133 µM.

Take `Cc1[nH]n(C(=N)N)c(=O)c1CCO`: the GI50 was inactive: > 100 µM.

In the case of `c1ccc2c(c1)-c1ccccc1C2NC1=NCCO1`, the GI50 is inactive: 35.5 µM.

For `Cn1cnc([N+](=O)[O-])c1Sc1nc2ccccc2o1`, the GI50 was inactive: 16.8 µM.

Regarding `COc1cc2c(cc1OC)-c1c3c(cc4c1[C@@H](C2)N(C)CC4)OCO3`, the GI50 is inactive: 2.9 µM.
